# About 14,000 (4.5%) of roughly 310,000 compounds showed an effect of 50% or more. The effect is printed as a negative number. The list shows a part of the results.
# Molecular target: human ether-à-go-go-related gene (hERG) potassium channel (human, UniProt Q12809)
# Assay: primary screen, population patch clamp on CHO cells stably expressing hERG
# 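Note: peak tail current of the secondary pulse compared with the same well before compound.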
# Chain of human ether-à-go-go-related gene (hERG) potassium channel (Q12809 whole entry, looked up): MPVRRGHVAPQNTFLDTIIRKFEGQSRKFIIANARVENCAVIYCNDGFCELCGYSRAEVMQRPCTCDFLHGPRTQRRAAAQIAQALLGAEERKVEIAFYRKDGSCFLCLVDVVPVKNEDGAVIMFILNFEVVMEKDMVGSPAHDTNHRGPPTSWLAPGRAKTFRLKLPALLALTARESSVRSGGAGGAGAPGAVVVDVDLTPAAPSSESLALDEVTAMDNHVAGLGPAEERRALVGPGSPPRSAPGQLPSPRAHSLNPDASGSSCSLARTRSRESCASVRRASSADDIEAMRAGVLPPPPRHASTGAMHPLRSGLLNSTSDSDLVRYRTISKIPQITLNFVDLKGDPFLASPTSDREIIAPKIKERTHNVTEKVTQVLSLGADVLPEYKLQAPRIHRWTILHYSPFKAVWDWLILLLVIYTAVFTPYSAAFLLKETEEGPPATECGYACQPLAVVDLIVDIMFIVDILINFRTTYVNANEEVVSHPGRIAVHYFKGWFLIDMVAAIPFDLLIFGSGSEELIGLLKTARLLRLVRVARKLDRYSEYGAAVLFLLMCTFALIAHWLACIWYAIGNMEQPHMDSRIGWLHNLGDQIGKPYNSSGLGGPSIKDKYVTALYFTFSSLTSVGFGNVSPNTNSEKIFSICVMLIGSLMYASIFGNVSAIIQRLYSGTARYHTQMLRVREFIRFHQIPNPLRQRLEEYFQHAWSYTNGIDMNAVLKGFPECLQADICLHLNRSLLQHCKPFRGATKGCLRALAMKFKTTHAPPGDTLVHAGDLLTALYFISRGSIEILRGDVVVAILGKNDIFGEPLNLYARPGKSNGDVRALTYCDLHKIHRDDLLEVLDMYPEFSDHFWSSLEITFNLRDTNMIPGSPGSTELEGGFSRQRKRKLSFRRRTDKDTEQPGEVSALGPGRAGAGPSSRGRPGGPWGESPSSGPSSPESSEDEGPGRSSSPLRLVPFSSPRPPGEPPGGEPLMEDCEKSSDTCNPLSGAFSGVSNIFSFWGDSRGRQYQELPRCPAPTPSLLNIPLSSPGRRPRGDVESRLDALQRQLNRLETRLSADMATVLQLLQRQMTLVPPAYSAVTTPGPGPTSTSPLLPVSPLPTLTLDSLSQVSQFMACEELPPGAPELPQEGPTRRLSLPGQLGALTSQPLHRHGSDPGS
row,SMILES,"hERG current change (%, negative = inhibition) at 10uM [%]"
1,CC(C)CNC(=O)CCc1nc(-c2ccccc2)no1,10.4
2,O=C(CCC1CCCC1)NNC(=O)c1ccc(F)cc1,-9.74
3,CCOC(=O)c1[nH]cnc1C(=O)N[C@@H](C)c1ccccc1,-5.33
4,CCNC(=S)N1CCN(c2ccccc2OCC)CC1,-1.46
5,C[C@@H](CSc1ccc(Br)cc1)CN1CC[C@H](O)CCC1=O,-12
6,CC1CC(C)CN(C(=S)SCc2nc(N)nc(Nc3ccccc3)n2)C1 (stereo not shown),-6.04
7,COc1ccc(NC(=O)Nc2ccc(CC(=O)O)cc2)cc1,21.8
8,Cn1nc(C(F)(F)F)c(-c2ccccc2)c1NC(=O)c1ccco1,-3.07
9,COc1ccc(-c2nc3scc(-c4ccccc4)n3n2)cc1,10.1
10,CCN(CC)S(=O)(=O)c1ccc(NC(=S)NC(=O)C(C)C)cc1,-3.29
11,Cc1cccc(CC(C)NC(=O)c2cc(COc3ccc(F)cc3F)on2)n1 (stereo not shown),-40.7
12,CC(=O)N(C)c1ccc(N=NC2C(=O)N(C(N)=S)N=C2C)cc1 (stereo not shown),21.1
13,O=c1c2oc3ccccc3c2[nH]c(=S)n1-c1ccc(F)cc1,25.3
14,COC(=O)CSc1nc2cc(C)cc(C)c2cc1C#N,14.5
15,CCCOc1ccc(N2C(=O)CC(N(C(=O)c3ccco3)c3ccc(OCCC)cc3)C2=O)cc1 (stereo not shown),-4.62
16,Cn1c(SCc2cccnc2)nc2c(c1=O)SCC2,7.48
17,Nc1nc(SCC(=O)Nc2ncc(Cl)cc2Cl)n[nH]1,5.12
18,COc1ccc(/C=C/C(=O)OCC(=O)NCC2CCCO2)cc1 (stereo not shown),1.74
19,CC(Sc1nnc(COc2ccc(Cl)cc2)n1-c1ccccc1)C(=O)O (stereo not shown),3.41
20,O=c1[nH]c(CN2CCN(C/C=C/c3ccccc3)CC2)nc2cc(Cl)ccc12,-106
21,COC(=O)/C(C(C)=O)=C(\C=C\N(C)C)N(C)C,-4.57
22,CC(=O)Nc1cccc(NC(=O)CS(=O)(=O)c2cn(CC(=O)N3CCOCC3)c3ccccc23)c1,-0.432

row,SMILES,"hERG current change (%, negative = inhibition) at 10uM [%]"
1,FC(F)(F)c1nnc2n1N=C(c1cccs1)CS2,-3.38
2,CN(C)CCCNC(=S)N1CCN(c2nc(-c3ccccc3)cs2)CC1,-23.7
3,COc1cccc2c1OCC(CN1CCN(CCC(C)C)C(CCO)C1)=C2 (stereo not shown),-3.37
4,O=C(NCCCN1CCOCC1)c1cc2ccccc2cc1O,7.28
5,COCCNC(=S)NCCc1ccc(Cl)cc1Cl,5
6,COc1ccc(N(CC(=O)N/N=C/c2ccco2)S(=O)(=O)c2ccccc2)cc1,-31
7,CC1=C(C)CS(=O)N(c2ccc(S(N)(=O)=O)cc2)C1 (stereo not shown),-7.78
8,CCN(CC(=O)NCc1ccc(Cl)cc1)C(=O)C(C)Sc1ccccc1 (stereo not shown),-33.8
9,CC(Oc1cccc(Br)c1)C(=O)NNC(=O)CCNC(=O)c1ccccc1Cl (stereo not shown),-5.69
10,CCS(=O)(=O)Nc1cccc(-c2nc3cccnc3s2)c1,-29.7
11,COc1ccc(NC(=O)Nc2cc(C(C)(C)C)on2)cc1OC,-1.9
12,CC1CCCCC1NS(=O)(=O)c1ccc2c(c1)CC(=O)N2C (stereo not shown),3.42
13,COCCOC(=O)c1[nH]c2c(c1C)C(=O)CC(c1ccc(OC)c(OC)c1)C2 (stereo not shown),9.54
14,C/C(=N\NC(=O)CN1CCN(Cc2ccc(C)cc2)CC1)c1ccncc1,-74.8
15,O=C(c1ccc(=O)[nH]c1)N1CCN(S(=O)(=O)c2cc(C(F)(F)F)ccc2Cl)CC1,-13.4
16,COc1cc(-c2nnc(SCC(=O)N3c4ccccc4Sc4ccccc43)o2)cc(OC)c1OC,0.943
17,CN(C(=O)CSc1nnc(-c2ccco2)n1N)C1CCCCC1,1.61
18,Cc1cc(NC(=O)CSc2nc3c(c(=O)n2-c2ccc(Br)cc2)SCC3)no1,-0.564
19,O=C(O)c1cc(S(=O)(=O)Nc2ccc3oc(=O)sc3c2)ccc1O,9.71
20,CNC(=O)NC(=S)NC(=O)c1ccccc1Cl,9.27
21,COc1ccc(OCc2cc(C(=O)N3CCOCC3)no2)c(Cl)c1,-9.96
22,Cc1ccc2cc(CCNC(=O)c3ccc(Br)o3)c(=O)[nH]c2c1,-24.3

row,SMILES,"hERG current change (%, negative = inhibition) at 10uM [%]"
1,c1ccc(Cn2nnc3c(N4CCCC4)ncnc32)cc1,-6.32
2,Cc1ccc(C(=O)NCCNc2ncc(C(F)(F)F)cc2Cl)cc1[N+](=O)[O-],-32.2
3,CCc1ccc(-n2c(=O)c3c(C)c(C(=O)N(C)C)sc3n(CC(=O)NCC3CCCO3)c2=O)cc1 (stereo not shown),-0.681
4,Cl.O=C(O)c1ccc(Nc2ncnc3ccccc23)cc1,22.8
5,Cc1ccc(C)c(OCC(=O)NC(Cc2c[nH]c3ccccc23)C(=O)O)c1 (stereo not shown),22.7
6,CCOc1ccc(NC(=S)NCCCN2CCN(C3CCCCC3)CC2)cc1,-47.2
7,N#C/C(=C/c1cn(CC(=O)O)c2ccccc12)c1ccc(F)cc1,-4.63
8,CC(=C/C(=O)O)/C(=C\c1ccc(Br)o1)C(=O)O,2.44
9,Cc1ccc(C(c2nnnn2CS(=O)(=O)c2ccc(C)cc2)N2CCC(C(N)=O)CC2)cc1 (stereo not shown),-55.1
10,COc1ccc(-n2nc(C(=O)NCC(=O)N3CCCCCC3)c3ccccc3c2=O)cc1,6.24
11,COc1cc(C(C(=O)NCc2ccccc2)N(Cc2ccco2)C(=O)c2cnccn2)cc(OC)c1OC (stereo not shown),19.8
12,Nc1nnnn1/N=C/c1cccc(O)c1,21.2
13,Cn1c(/C(C#N)=N/O)nc2ccccc21,8.27
14,O=C(O)C(=O)O.O=[N+]([O-])c1ccc(Oc2ccc(C(F)(F)F)cn2)cc1,-53.9
15,O=c1c(C(c2ccc(Br)cc2)c2c(O)nc3n(c2=O)CCS3)c(O)nc2n1CCS2,14.9
16,CCCCC(=O)N/N=C/c1c(O)n(Cc2ccc(F)cc2)c(=O)[nH]c1=O,4.73
17,O=C(NCCOc1nc(N2CCOCC2)nc(N2CCOCC2)n1)Nc1ccc(Cl)cc1,5.21
18,Cc1cc(Cl)c(S(=O)(=O)Nc2ccc3c(c2)OCO3)cc1OCC(=O)NC1CCCCC1,13
19,c1ccc(CCN2CCN=C2Nc2ccccc2)cc1,-7.18
20,Cc1nn(CC2CC2)c(=O)n1-c1ccc(Oc2ccccc2)cc1,-13.6
21,COc1ccc(CC2(CO)CCN(Cc3ccncc3)CC2)cc1,-21.2
22,O=C1NCCC/C1=N\Nc1ccc(Br)cc1,10.7

row,SMILES,"hERG current change (%, negative = inhibition) at 10uM [%]"
1,COC(=O)Nc1cc([N+](=O)[O-])ccc1OC,28.4
2,CCOc1ccccc1C(=O)NCCNC(=O)c1ccccc1OCC,-2.01
3,Cc1cc(C)n2c(SCC(=O)Nc3c(C)n(C)n(-c4ccccc4)c3=O)nnc2n1,-26.3
4,COc1ccc(Cc2[nH]n3c(=O)cc(C)nc3c2-c2ccccc2)cc1,11.1
5,COc1ccc(N2C(C)=CS/C2=C(/C#N)c2nnc(N3CCOCC3)n2-c2ccccc2)cc1,-18.3
6,Cc1c(C(=O)N2CC3(CC(c4cccc(NC(=O)[C@H]5CCC(=O)N5)c4)=NO3)C[C@@H]2C(N)=O)cc([N+](=O)[O-])cc1[N+](=O)[O-] (stereo partly shown),10.5
7,CCC(CC)CN1C(Nc2ccccc2)=NC[C@@H]1CC(C)C,-58.2
8,CCCCNc1ccc(C(CC(N)=O)NC(=O)Cc2ccc(Br)cc2)cc1[N+](=O)[O-] (stereo not shown),-0.243
9,Cc1ccc(-c2cc(C(=O)Nc3ccccn3)c3ccccc3n2)o1,6.72
10,CC(=O)OCCOc1nc(N(C)C)nc(N(C)C)n1,3.1
11,O=C(Nc1ccccc1N1CCN(C(=O)c2ccc(Cl)cc2)CC1)c1cc(Br)ccc1Cl,-67.7
12,O=c1cc(N2CCN(c3ccccc3)CC2)[nH]c(=O)n1-c1ccccc1Cl,-1.13
13,COc1cc(C(c2sc3nc(C)nn3c2O)N2CCc3ccccc3C2)cc(OC)c1OC (stereo not shown),-11.5
14,COCCCNC(=O)c1c(N)n(/N=C/c2cccs2)c2nc3ccccc3nc12,2.94
15,O=C(Cc1ccc(Cl)cc1)NNS(=O)(=O)c1ccc([N+](=O)[O-])cc1,7.22
16,CCOc1ccc(OCC)c(S(=O)(=O)N2CCCCC2C)c1 (stereo not shown),-52.2
17,CCOC(=O)CC(N)c1ccc(OC)cc1.Cl (stereo not shown),7.93
18,COc1ccc(OC)c(S(=O)(=O)N2CCCC(C(=O)N3CCCC3)C2)c1 (stereo not shown),-0.894
19,Cc1ccc(N(CC(=O)NC2CC3CCC2C3)S(C)(=O)=O)cc1C (stereo not shown),-6.97
20,O=c1c2ccccc2sn1-c1ccccc1,14.6
21,Cn1cnc([N+](=O)[O-])c1Oc1ccccc1,14.2
22,COc1ccc(CC(NC(C)=O)C(=O)NC2CCN(C(=O)NCc3ccccc3)CC2)cc1OC (stereo not shown),2.78

# From publication PMC4336329 (PLoS ONE, 2015)
